Experimental data published in article PMC4336329 (PLoS ONE, 2015).
In all, about 310,000 compounds went through this assay and about 14,000 (4.5%) showed an effect of 50% or more. Effects have a minus sign here. The list shows a part of the results.

The compounds below were run against human ether-à-go-go-related gene (hERG) potassium channel (human, UniProt Q12809) (assay: primary screen, population patch clamp on CHO cells stably expressing hERG).
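Also: peak tail current of the secondary pulse compared with the same well before compound.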

Sequence of human ether-à-go-go-related gene (hERG) potassium channel (Q12809 whole entry, looked up): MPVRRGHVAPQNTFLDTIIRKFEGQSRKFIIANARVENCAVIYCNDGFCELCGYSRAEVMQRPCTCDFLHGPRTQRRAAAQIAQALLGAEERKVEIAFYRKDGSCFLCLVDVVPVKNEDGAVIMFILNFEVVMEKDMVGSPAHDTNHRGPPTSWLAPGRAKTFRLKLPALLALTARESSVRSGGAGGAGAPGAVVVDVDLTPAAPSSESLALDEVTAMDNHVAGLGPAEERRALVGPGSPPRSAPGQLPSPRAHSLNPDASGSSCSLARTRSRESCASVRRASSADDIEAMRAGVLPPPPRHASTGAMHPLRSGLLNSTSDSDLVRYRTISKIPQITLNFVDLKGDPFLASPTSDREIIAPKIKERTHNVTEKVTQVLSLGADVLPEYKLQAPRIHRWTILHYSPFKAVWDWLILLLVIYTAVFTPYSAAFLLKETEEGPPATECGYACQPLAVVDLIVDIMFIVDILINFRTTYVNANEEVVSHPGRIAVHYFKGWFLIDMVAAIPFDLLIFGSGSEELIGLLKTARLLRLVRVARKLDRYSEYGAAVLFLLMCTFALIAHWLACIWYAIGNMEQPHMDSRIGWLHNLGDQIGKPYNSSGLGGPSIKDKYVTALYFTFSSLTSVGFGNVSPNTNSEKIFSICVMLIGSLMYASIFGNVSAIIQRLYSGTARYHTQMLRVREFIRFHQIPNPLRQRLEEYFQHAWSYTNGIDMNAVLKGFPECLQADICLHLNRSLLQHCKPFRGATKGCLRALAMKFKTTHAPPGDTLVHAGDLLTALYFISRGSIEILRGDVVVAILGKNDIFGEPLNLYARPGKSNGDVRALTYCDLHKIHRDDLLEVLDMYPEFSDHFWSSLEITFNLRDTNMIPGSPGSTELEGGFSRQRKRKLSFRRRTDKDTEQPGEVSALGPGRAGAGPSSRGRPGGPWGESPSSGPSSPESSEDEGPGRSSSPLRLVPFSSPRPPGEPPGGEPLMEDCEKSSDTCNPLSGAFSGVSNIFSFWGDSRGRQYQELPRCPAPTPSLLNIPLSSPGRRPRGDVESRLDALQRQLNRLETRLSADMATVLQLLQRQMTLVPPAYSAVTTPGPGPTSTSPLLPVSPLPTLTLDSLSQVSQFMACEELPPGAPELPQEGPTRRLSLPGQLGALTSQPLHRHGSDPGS

Row | SMILES | hERG current change (%, negative = inhibition) at 10uM
1 | COc1ccc(C(=O)NC(=S)NNC(=O)c2ccc(O)cc2)cc1[N+](=O)[O-] | 22.2%
2 | NS(=O)(=O)c1ccc(CCNC(=O)CCNS(=O)(=O)c2ccccc2C(F)(F)F)cc1 | 9.03%
3 | CC12CCC(C(=O)Nc3cccc(Cl)c3)(C(Br)C1=O)C2(C)C (stereo not drawn) | -0.0939%
4 | CC(O)C1CCC2C3CC[C@H]4CC(O)CCC4(C)C3CC3(OCCO3)C12C (stereo partly drawn) | -2.52%
5 | O=C(NCCSCc1ccco1)Nc1cccc(Cl)c1 | -7.92%
6 | CCC(C)[C@H](NC(=O)NC1CCCc2ccccc21)C(=O)OC (stereo partly drawn) | 5.19%
7 | Cc1ccc(NC(=O)C[n+]2cc(-c3ccccc3)n3c2CCC3)cc1.[Cl-] | -15.2%
8 | CCOc1cc2c(cc1OCC)C(c1ccc(F)cc1)NCC2 (stereo not drawn) | -10%
9 | CN(CC(=O)Nc1ccccc1Br)C(=O)CN(C)C1CCCCC1 | 7.12%
10 | COc1ccccc1NS(=O)(=O)c1ccc(C)c(C(=O)NCC(c2ccco2)N(C)C)c1 (stereo not drawn) | -4.16%
11 | C=CCSc1nnc(NC(=O)CCN2C(=O)C3CC=CCC3C2=O)s1 (stereo not drawn) | -22.8%
12 | COc1ccc(CCNC(=O)CSc2nnc(CNC(=O)c3ccccc3F)o2)cc1OC | 7.62%
13 | C#CCOCCOCCOCCNc1nc(N2CCN(C(=O)CCCCCCCCCCNC(=O)Cn3cc(CCCCCN)nn3)CC2)nc(N2CCN(C(=O)CCCCCCCCCCNC(=O)[C@@H]([C@H](C)O)n3cc(C)nn3)CC2)n1 | -22.5%
14 | CCn1c(=O)c2ccccc2n(CC(=O)NC2CCCCC2)c1=O | 12.7%
15 | CC(C)Oc1ccc(CNCCC2(C(C)C)CCOC(C)(C)C2)cc1 (stereo not drawn) | -45.4%
16 | O=C(c1ccccc1)N(Cc1ccc2c(c1)OCO2)Cc1nc2ccccc2c(=O)[nH]1 | -15.4%
17 | CCN(CC)CCNC(=O)c1cccc(NC(=O)C(=O)c2cc(Br)ccc2NC(C)=O)c1 | -5.49%
18 | O=c1c2ccccc2ncn1Cc1ccc2c(c1)OCO2 | -2.63%
19 | Cc1ccc(N(C(=O)Cn2nnc(-c3ccccc3F)n2)C(C(=O)NC2CCCC2)c2ccncc2)cc1 (stereo not drawn) | 5.87%
20 | Cc1cc2cc(CNC(=O)c3ccc(S(=O)(=O)N4CCCC4)cc3)ccc2n1C | 12.1%
21 | O=C(N/N=C/c1ccc(N2CCCC2)c([N+](=O)[O-])c1)c1cccnc1 | -15.5%

Row | SMILES | hERG current change (%, negative = inhibition) at 10uM
22 | CC(C)CN(C(=O)CCC(=O)OCC(=O)NCCc1ccccc1)c1c(N)n(CC(C)C)c(=O)[nH]c1=O | -9.28%
23 | CCOC(=O)c1c(NC(=O)CSc2nnc(C)c(=O)[nH]2)sc2c1CCC2 | -2.6%
24 | Cc1[nH]c(=O)[nH]c(=O)c1S(=O)(=O)N1CCN(c2ccccc2)CC1 | 19%
25 | COc1cc(OC)cc(C(=O)OCC(=O)NCCCc2ccccc2)c1 | 12.2%
26 | CCOC(=O)N/N=C/C=C/c1ccccc1[N+](=O)[O-] | -4.87%
27 | CCOc1ccc(S(=O)(=O)N2CCC(C(=O)NCC3CCCO3)CC2)cc1C (stereo not drawn) | 0.744%
28 | C=CCNc1nc(NCc2ccccc2)nc(OCC)n1 | -2.73%
29 | Cn1cc(-c2nnc(-c3ccccc3)o2)c2ccccc21 | 14%
30 | N/C(=N\c1nc(CSc2nnnn2-c2ccccc2)cc(=O)[nH]1)Nc1ccccc1 | 6.26%
31 | COC(=O)CN1C(=O)COc2ccc(S(=O)(=O)N3CCCCCC3)cc21 | -7.44%
32 | COc1ccccc1/C=C(/NC(=O)c1ccccc1)C(=O)NCCN1CCOCC1 | 15.5%
33 | Cc1ccc(C(=O)NC(=S)Nn2cnnc2)cc1 | 16.3%
34 | CCCCc1ccc(N=N/C(C(=O)Nc2ccccc2OC)=C(/C)O)cc1 | -8.51%
35 | O=C(Nc1ccccc1)c1ccc(=O)n(Cc2ccc(F)c(F)c2)c1 | -8.35%
36 | COC(=O)[C@@]12CCCCN1[C@H](c1ccc(-c3ccc4c(c3)OCO4)c(OC)c1)[C@@H]1C(=O)N(C)C(=O)[C@@H]12.O=C(O)C(F)(F)F | 7.48%
37 | Cc1ccc(S(=O)(=O)N2CCC(C(=O)NCCCn3ccnc3)CC2)cc1 | 23%
38 | COc1ccc(CCNC(=O)C2CCN(S(=O)(=O)N3CC(C)CC(C)C3)CC2)cc1OC (stereo not drawn) | -7.13%
39 | CN(CC(=O)Nc1ccc(S(=O)(=O)N2CCCC2)cc1)Cc1ccc(Cl)cc1Cl | 10.8%
40 | N#CC1=C(N)NC(=S)C(C(N)=O)C1c1ccccc1F (stereo not drawn) | 10.4%
41 | CC(C)c1cc(C(=O)N/N=C/c2cccnc2)n[nH]1 | -7.4%
42 | COc1ccc(OCc2cccc(C(=O)NN)c2)cc1 | 2.35%

Row | SMILES | hERG current change (%, negative = inhibition) at 10uM
43 | O=C(O)CCSc1nc2ccccc2n1CCOc1ccccc1 | -1.67%
44 | Cc1ccc(CNC(=O)CCc2nc3ccccc3c(=O)[nH]2)cc1 | -7.2%
45 | Cc1cccc(C)c1NC(=O)NC1CC2CCC(C1)N2Cc1cccs1 (stereo not drawn) | 11.6%
46 | O=C(NCCc1ccccc1)C(c1cccs1)N(C(=O)c1csnn1)C1CC1 (stereo not drawn) | -41%
47 | COc1ccc(CCNC(=O)c2cc(COc3c(C)cccc3C)on2)c(OC)c1 | 8.55%
48 | CC1=C(N2CCN(c3ncccn3)CC2)CCC1=O | 3.43%
49 | COc1cc(O)c(C(C)=O)c(CC(=O)O)c1 | -0.401%
50 | N#CC1(NC(=O)CN2C(=O)NC3(CCCCCC3)C2=O)CCCCC1 | -0.951%
51 | CCNC(=S)NNC(=O)C(c1ccccc1)c1ccccc1 | 3.38%
52 | COc1cccc(CNC(=O)CN2C(=O)c3ccccc3S2(=O)=O)c1 | 6.27%
53 | CCN(CC(=O)Nc1c(F)cccc1F)C(=O)/C=C/c1ccc(OCC#N)c(OC)c1 | -7.55%
54 | CCOc1ccccc1N1CCN(C(=O)c2cc[n+]([O-])cc2)CC1 | 8.46%
55 | Cc1no[n+]([O-])c1COc1ccccc1/C=N/n1nnnc1N | 6.18%
56 | CCOc1cc(C(=O)NCC2CCCO2)cc(OCC)c1OCC (stereo not drawn) | -1.4%
57 | O=C(CSc1nnc(-c2cccnc2)s1)Nc1ccccc1 | 8.59%
58 | CCC(OC(=O)C(NC(=O)c1ccccc1)c1ccccc1)C(=O)Nc1cc(C)on1 (stereo not drawn) | 2.96%
59 | Cc1cc(OC(=O)c2ccco2)c2c3c(c(=O)oc2c1)CCCC3 | -5.53%
60 | Cc1ccc(C(=O)COc2cc(C)nc3nncn23)cc1 | 11.3%
61 | COc1ccc(OCC(=O)OCC(=O)Nc2ccc(S(=O)(=O)N3CCCCC3)cc2)cc1 | 2.69%
62 | Cc1cc(NC(=O)c2ccccc2)n(C(C)(C)C)n1 | 19.4%
63 | O=C(c1ccc(N2CCCC2=O)cc1)N1CCN(c2ccccc2)CC1 | 13.3%

Row | SMILES | hERG current change (%, negative = inhibition) at 10uM
64 | COCCSc1nnc(NC(=O)c2cc(OC)c(OC)cc2[N+](=O)[O-])s1 | 18.6%
65 | COc1cccc(C2C(=O)N(C3CCCCC3)CC(=O)N2Cc2ccc(F)cc2)c1 (stereo not drawn) | -43.8%
66 | CN(c1ccccc1)c1ccc(/C=N/N2CCOCC2)cc1 | 1.86%
67 | CCOc1ccc(-c2ccc(NS(=O)(=O)c3cc([N+](=O)[O-])c(C)c([N+](=O)[O-])c3)cc2)nn1 | 0.623%
68 | COC(=O)[C@@H](NC(=O)O[C@@H]1C(=O)c2cc(Br)ccc2O[C@H]1c1cccc(OC)c1)C(C)C | -2.02%
69 | O=C(OCC(=O)N1CCC(Cc2ccccc2)CC1)c1ccc[nH]c1=O | -4.41%
70 | COc1ccc2oc(=O)c(N3C(=O)c4ccccc4C3=O)cc2c1 | 30.8%
71 | O=c1[nH]c(C(F)(F)F)nc2ccc3ccccc3c12 | 17.4%
72 | COc1ccc(C2CCCN2C(=O)Nc2ccc(F)cc2)cc1OC (stereo not drawn) | -4.22%
73 | CC(CC(=O)Nc1cc(C(F)(F)F)ccc1Cl)c1ccccc1 (stereo not drawn) | 5.25%
74 | Cc1cc(N)n(-c2ccccc2)n1 | 12.9%
75 | O=C(CSc1nnc(Cc2cccs2)n1C1CC1)NC1CCS(=O)(=O)C1 (stereo not drawn) | -1.17%
76 | Cc1nc(NC(=O)c2ccccc2)sc1Cc1ccc2c(c1)OCO2 | -5.17%
77 | COc1ccc(-n2c(C)nc3cc(C(=O)NCc4ccc5c(c4)OCO5)ccc32)cc1 | -16.8%
78 | CC1CCCCC12NC(=O)N(CC(=O)Nc1sc3c(c1C(N)=O)CCC3)C2=O (stereo not drawn) | -3.89%
79 | CS(=O)(=O)c1ccc(Cl)c(NC(=O)COc2ccc3c(c2)CCC3)c1 | -4.02%
80 | COc1ccc(C(C)(C)C)cc1NS(=O)(=O)c1cccc2cccnc12 | 18.3%
81 | Cc1ccc(C)c(CSc2nnc([C@@H](N)C(C)C)o2)c1.Cl | 6.63%
82 | Cc1cccc(NC(=O)c2nc[nH]c2C(=O)N[C@@H](CCCCNC(=O)OC(C)(C)C)C(=O)OC(C)(C)C)c1 | 12.5%
83 | CCN(CC(=O)Nc1c(F)cccc1F)C(=O)C1CCN(S(=O)(=O)c2ccc(F)cc2)CC1 | -14%
84 | OCc1csc(=Nc2ccccc2)n1-c1ccccc1 | 0.29%
